# PubChem BioAssay (NCI)
# Several values for one entry are separate records, joined by “and”; a condition that tells them apart may be missing. Identical values can stand only once.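 Exposure lasted 48 hours, with cells grown in 96-well plates and compounds tested at five concentrations. At the GI50, growth is halved. TGI is the concentration that stops growth completely.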
# Test system: NCI-H322M lung
# Assay: DTP human tumour cell line panel, 48 h
SMILES,GI50,TGI [µM]
COc1cc(NCc2ccc3nc(N)nc(N)c3c2C)cc(OC)c1OC (tested in a mixture with another compound),0.0198 µM and 0.0973 µM,51
O=C1C(c2c(O)[nH]c3ccc(F)cc23)=Nc2ccccc21,–,> 100
OC1C#CCSCC#C/C=C\1 (stereo not given),–,> 100
COc1cc2c3c(n(C)c(=O)c2cc1OC)-c1cc2c(cc1/C3=C\CN)OCO2,1.68 µM,11.1
N#Cc1c(N)n(-c2cccc(C(=O)O)c2)c(=O)c2cc([N+](=O)[O-])ccc12,–,> 100
C=C(C)[C@@H]1CC[C@]2(C)[C@H](CC=C3[C@@H]4CC(C)(C)CC[C@]4(C(N)=O)CC[C@]32C)[C@@]1(C)CCC#N,4.78 µM,> 100
Cc1[nH]nc(C(F)(F)F)c1N=NN1CCOCC1,–,30.3
Nc1nc(N)c2c3c(cnc2n1)CC(c1ccccc1)CC3 (stereo not given),–,63.6
O=C1/C(=C/c2ccc3c(c2)OCO3)SC2C=Nc3ccccc3N12 (stereo not given),–,> 100
CC(OC(C)(C)C)[C@H](NC(=O)OCC(Cl)(Cl)Cl)C(=O)O (stereo not given in full),–,> 100
CN(C)CCC(=O)c1ccccc1,–,> 100
CCOC(=O)Nc1ccc(C)c(NC(=O)OCC)c1,–,> 100
CCSc1ncnc2c1ncn2C1OC(CO)C(O)C1O (stereo not given),0.609 µM,> 51.4
C1CN2CCN3CCN4CCN1[P+]243,–,> 100
CC(=O)c1c(C)n([O-])c2cc(Cl)c(Cl)cc2[n+]1=O,–,64
Cc1ccc(-n2c(N)c(C#N)c3[nH]nc(N)c3c2=O)cc1,–,> 100
COc1ccc(Nc2nnc(-c3cc(O)ccc3O)s2)cc1,> 50 µM,> 50
COC(CNC(=O)C(C)NC(=O)/C=C/c1ccccc1)OC (stereo not given),–,> 100
COC(=O)C1=C(C(=O)NNc2ccccc2)N(c2cccnc2Cl)C(c2ccccc2)=CC1c1ccccc1 (stereo not given),–,> 100
O=[N+]([O-])/C(C(Cl)=C(Cl)Cl)=C(/Cl)Sc1ccccc1,–,31

SMILES,GI50,TGI [µM]
CC1CCC(C(C)C)C(OC(=O)NCn2cc(-c3ccccc3)nn2)C1 (stereo not given),–,> 100
CCC(C)OC(=O)/C(Br)=C1/OC(=O)c2ccccc2-c2ccccc21 (stereo not given),–,> 100
CC[C@H]1[C@@H]2C=C[C@@H]3[C@H]4C/C=C\C(=O)NCCC[C@@H]5NC(=O)/C(=C(O)/C=C/[C@@H]4C[C@@H]3[C@H]2C[C@H]1C)C5=O,1.98 µM,4.96
O=C1CCCC1CN1CCCC1 (stereo not given),–,> 100
O=C1/C(=C/c2ccc(Cl)cc2)CCC1CCN1CCOCC1 (stereo not given),–,> 100
Cc1ccccc1N1C(=O)C2C=CC(n3[nH]c(=O)n(Cc4ccccc4)c3=O)CC2C1=O (stereo not given),–,> 100
Clc1ccc(C2C3COc4ccccc4C3=NN2c2ccccc2)cc1 (stereo not given),–,> 100
COc1ccc(C(OCC2OC(n3cc(C)c(=O)[nH]c3=O)CC2n2cc(Cn3cc(Cl)c(=O)[nH]c3=O)nn2)(c2ccccc2)c2ccccc2)cc1 (stereo not given),–,> 100
CC(C)(C)OC(=O)[C@H]1CCC(=S)N1Cc1ccccc1,–,> 100
Cn1cc(C2=C(c3cn(CCCCO)c4ccccc34)C(=O)NC2=O)c2ccccc21,9.05 µM,> 24.2
O=C(CCc1n[nH]c(=S)o1)Nc1ccccc1C(F)(F)F,–,> 100
Cc1nc2c(nc1C)-c1[nH]c3c(c1C(=O)C2=O)CCCC3=O,–,26.6
O=C(O)[C@@H]1CCS(=O)(=O)N1,–,> 100
O=C(Nc1ccncc1)C(=O)c1cn(S(=O)(=O)c2ccc(F)cc2)c2ccccc12,48.1 µM,> 100
COC(=O)C(Cc1nc2ccc(Cl)cc2[nH]c1=O)/C(=N\N)C(=O)Nc1cc(C)c(Cl)cc1S(=O)(=O)O (stereo not given),–,> 100
O=[N+]([O-])c1ccc2c(c1)C1=C(CO2)Cc2ccccc2O1,–,> 100
CCCCCCc1cc2cc(C(=O)Nc3ccccc3)c(=N)oc2cc1O,–,> 100
CS(=O)(=O)CCNCc1nc(-c2ccc3ncnc(Nc4ccc(OCc5cccc(C(F)(F)F)c5)cc4)c3c2)cs1,5.91 µM,> 25
Nc1nc(/C=C\c2ccc([N+](=O)[O-])s2)nc(N2CCCC2)n1,3.12 µM,14.1
COc1ccc(NC(=O)/C(Cc2cc(=O)oc3cc(O)ccc23)=N\NC(C)(C)C)c(OC)c1,–,> 100
